This is an account of results in article PMC6919601, “Identification of Plasmodium dipeptidyl aminopeptidase allosteric inhibitors by high throughput screening” (PLoS ONE, 2019).

Molecules are shown by their SMILES. About 230 (0.21%) of roughly 110,000 compounds showed an effect of 50% or more. The list shows a part of the results.
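Further: 30 min substrate incubation versus DMSO and 10 µM JCP410 controls.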

Sequence of DPAP1 (Q8IIJ9 whole entry, looked up): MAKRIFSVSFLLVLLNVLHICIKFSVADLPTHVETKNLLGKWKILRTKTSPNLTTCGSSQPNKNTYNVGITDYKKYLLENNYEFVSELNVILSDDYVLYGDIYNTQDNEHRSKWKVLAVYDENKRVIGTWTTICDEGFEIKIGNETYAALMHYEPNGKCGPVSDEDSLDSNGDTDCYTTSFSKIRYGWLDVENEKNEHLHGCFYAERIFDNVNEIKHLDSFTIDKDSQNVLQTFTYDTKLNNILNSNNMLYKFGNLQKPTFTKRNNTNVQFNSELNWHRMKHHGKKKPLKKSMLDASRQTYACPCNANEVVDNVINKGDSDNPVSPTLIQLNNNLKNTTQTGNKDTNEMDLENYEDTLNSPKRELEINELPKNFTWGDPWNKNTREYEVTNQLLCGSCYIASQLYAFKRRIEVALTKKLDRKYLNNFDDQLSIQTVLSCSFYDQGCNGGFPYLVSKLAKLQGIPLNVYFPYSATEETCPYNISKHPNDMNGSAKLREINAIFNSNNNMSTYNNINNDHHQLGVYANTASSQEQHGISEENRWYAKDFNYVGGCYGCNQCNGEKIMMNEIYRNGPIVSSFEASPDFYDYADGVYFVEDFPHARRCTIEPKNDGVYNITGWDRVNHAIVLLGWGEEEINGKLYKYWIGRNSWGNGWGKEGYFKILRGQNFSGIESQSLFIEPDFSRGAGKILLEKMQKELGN

This assay addresses DPAP1 (Plasmodium falciparum, UniProt Q8IIJ9). Briefly: primary screen, percent inhibition; read by cleavage of a fluorogenic dipeptide substrate; higher = more effect of the substance. Details: species or system P. falciparum D10 trophozoite lysates; single well.
In the case of `O=C(C1CCCN1S(=O)(=O)c1cccc2nsnc12)N1CCN(c2ccccn2)CC1` (centres unmarked), the “% Inhibition @ 10 uM” value was -8.02%.
The value for `CNC(=O)Cn1c(=O)c2cccn2c2cccnc21` was -7.87%; that for `Cc1cc(-c2ccccc2C(=O)O)on1` was -5.2%; that for `Cc1ccc(S(=O)(=O)N2CC=C(C(=O)NCC3CCCO3)CC2)cc1` (centres unmarked) was -0.406%.
As to `CC(C)CCn1c(=O)c2ccccc2n2c(CCC(=O)NCCC3=CCCCC3)nnc12`, the “% Inhibition @ 10 uM” value came out at 17.1%.
As for `Cc1cc(-c2noc(-c3cccc(Br)c3)n2)c2ccccc2n1`, the “% Inhibition @ 10 uM” value is given as 2.99%.
As for `Cc1ccc2nc(NC(=O)CSc3nc(C)cc(C)n3)sc2c1`, the “% Inhibition @ 10 uM” value is recorded as 0.823%.
`CC(C)C[C@H](NC(=O)c1cc(-c2cccnc2)c(Cl)s1)C(=O)NCC#N`: the “% Inhibition @ 10 uM” value is -3.48%.
Take `C#CCOc1ccc(C2C3=C(CCCC3=O)OC3=C2C(=O)CCC3)cc1Cl`: the “% Inhibition @ 10 uM” value was 1.83%.
The value for `COc1ccc(NC(=O)Cc2ccc(F)cc2F)cc1` was -2.18%.
`CCOC(=O)c1c(C)c(C(=O)NC2CCCCC2C)c(C)n1C` (centres unmarked): the “% Inhibition @ 10 uM” value is reported as 1.72%.
`Cc1nc2ccc(Cl)cc2c(=O)n1-c1nc2ccccc2s1`: the “% Inhibition @ 10 uM” value is -3.18%.
Take `COc1ccc(-c2onc(C)c2C)cc1S(=O)(=O)N1CCN(Cc2ccccc2)CC1`: the “% Inhibition @ 10 uM” value is -1.88%.
Next, `Cc1cccnc1NC(=O)NCc1noc2ccccc12`: 1.41%; `COc1ccc(S(=O)(=O)NCc2ccncc2)c(Cl)c1Cl`: 7.67%.
On to `Cn1nc(C(=O)NCc2ccco2)c2c1-c1ccccc1SC2`, for which the “% Inhibition @ 10 uM” value is 30.8%.
Next, `COc1cccc(C(=O)N2CCN(Cc3ccc(F)cc3)CC2)c1OC`: 1.71%; `COCCNC(=O)/C(C#N)=C/c1c(Oc2cccc(C)c2C)nc2c(C)cccn2c1=O`: 0.315%; `COC(=O)c1ccccc1S(=O)(=O)NCc1nc2nc(C)cc(C)n2n1`: 2.84%.
`CC(=O)C1C(=O)C=C(c2cccs2)CC1c1ccccc1` (centres unmarked): the “% Inhibition @ 10 uM” value is -1.48%.
On to `Nc1ccc(CN2C(=O)c3ccccc3C2=O)cc1`, for which the “% Inhibition @ 10 uM” value is -4.02%.
Take `O=C(Nc1ccc(F)cc1)c1cc2ccccc2o1`: the “% Inhibition @ 10 uM” value was -0.318%.
The value for `COc1ccccc1CNC(=O)CCCc1nnc2n3nc(-c4ccccc4)nc3c3ccccc3n12` was 3.59%; that for `COC(=O)c1cc2oc3ccccc3c2[nH]1` was -7.02%; that for `CSc1ncc(C(=O)O)c(C(F)(F)F)n1` was 4.87%.
For the molecule `COc1cc(OC)cc(C(=O)N2CCN(c3cccc(C)c3C)CC2)c1`, the “% Inhibition @ 10 uM” value stood at 1.83%.
For the molecule `COc1cc(/C=C/c2nc(C#N)c(NCC3CCCO3)o2)cc(OC)c1OC` (centres unmarked), the “% Inhibition @ 10 uM” value is on record as -4.39%.
As for `CCOP1(=S)Oc2cc(Cl)ccc2C(C(F)(F)F)(C(F)(F)F)O1` (centres unmarked), the “% Inhibition @ 10 uM” value came to 1.84%.
In the case of `O=C(Nc1ccc(-c2cn3cccnc3n2)cc1)c1ccccc1Cl`, the “% Inhibition @ 10 uM” value is -5.34%.
Next, `CC(C)Sc1ncc(Cl)c(C(=O)Nc2sc3c(c2C(=O)NCc2ccco2)CCC3)n1`: -1.16%; `Cc1ccc(C(=O)O/N=C(\N)CC(N)=O)cc1`: -0.326%; `COc1ccc(-c2nc(CSCC(=O)NCc3ccc4c(c3)OCO4)c(C)o2)cc1`: -2.85%.
With `CCOC(=O)N1CCC(NC(=O)C2CCN(c3nnc(-n4cccc4)s3)CC2)CC1`, the “% Inhibition @ 10 uM” value is 1.15%.
Regarding `CCCCOC(=O)c1sc2nc(N)c(C#N)c(-c3ccc(OC)c(OC)c3)c2c1N`, the “% Inhibition @ 10 uM” value was determined as 3.54%.
Regarding `CC(=O)N1CCc2c(sc3nc(SCc4cc(C)ccc4C)n(Cc4ccco4)c(=O)c23)C1`, the “% Inhibition @ 10 uM” value is 2.97%.
Turning to `Cc1ccc(S(=O)(=O)Nc2ccc(NC(=O)C3CC=CCC3C(=O)O)cc2)cc1` (centres unmarked), the “% Inhibition @ 10 uM” value is listed as -4.21%.
In the case of `Cc1[nH]nc2c1C(c1ccccc1OCc1ccccc1Cl)C(C#N)=C(N)O2` (centres unmarked), the “% Inhibition @ 10 uM” value came to 4.07%.
Next, `Clc1ccc(-c2nnc3ccc(N4CCCCC4)nn23)cc1`: 3.8%; `O=Cc1c(-c2ccc(F)cc2)nc2ccccn12`: -2.5%; `CS(=O)(=O)C1=NSC2=NC(=O)/C(=C\c3ccc(SC4CCCCC4)o3)C(=N)N21`: -1.28%.
As for `CCOc1ccc(N2C(=O)CC(NCC3CCCCC3)C2=O)cc1` (centres unmarked), the “% Inhibition @ 10 uM” value is given as -7.22%.
`COc1cc(OC)cc(-n2nnc(-c3nc(-c4cccs4)no3)c2N)c1`: the “% Inhibition @ 10 uM” value came to 5.22%.
In the case of `CCOc1ccc(-c2csc(C3COc4ccccc4O3)n2)cc1` (centres unmarked), the “% Inhibition @ 10 uM” value is listed as -0.636%.
Turning to `COc1cc(S(=O)(=O)NCCOC23CC4CC(CC(C4)C2)C3)c(C)cc1C`, the “% Inhibition @ 10 uM” value is -1.72%.
As to `CC(C)Cn1c2ccccc2c2cc(C(=O)O)ccc21`, the “% Inhibition @ 10 uM” value came to 0.565%.
With `COc1ccc(-c2nnn(CC(=O)Nc3sc4c(c3C#N)CCC(C(C)(C)C)C4)n2)cc1` (centres unmarked), the “% Inhibition @ 10 uM” value is on record as -7.8%.
As to `COc1ccc(NC(=O)c2ccco2)cc1OC`, the “% Inhibition @ 10 uM” value was -2.36%.
For `Cc1cc(C)c(Cn2c(CCCO)nc3ccccc32)c(C)c1`, the “% Inhibition @ 10 uM” value is 4.3%.
In the case of `COC(=O)c1ccc(C2c3c(oc4cc(C)c(C)cc4c3=O)C(=O)N2c2nccs2)cc1` (centres unmarked), the “% Inhibition @ 10 uM” value is 2.1%.
On to `CCOc1ccc(-c2nc3s/c(=C\c4ccc(C)o4)c(=O)n3n2)cc1`, for which the “% Inhibition @ 10 uM” value is given as 2.17%.
